PubChem BioAssay AID1963576 (National Center for Advancing Translational Sciences (NCATS), 2024)
The whole screen tested about 46,000 compounds, of which about 60 (0.1%) were called active. Inconclusive results (about 3%) are left out. The call rests on the fitted dose curve; in most records, active means well fitted inhibition curve with a large enough effect; inconclusive means small, poorly fitted or top-dose-only effect; inactive means no such curve, though single readings can be large or run the other way. This is one part of the list.

Test: Primary qHTS assay for Inhibitors of ovarian cancer metastasis using an organotypic tumor microenvironment (TME) model. Further: nearly all actives have a fitted effect of over 65% in size.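 On activity change, negative = inhibition: plate controls were DMSO wells for no effect and tomatine positive control wells for full effect.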
Details: SKOV3ip1-GFP adhesion/invasion on 3D omental model, fluorescence; series mostly up to 45.8 µM; activity change, negative = inhibition: at the top concentration
How it was run: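 A 3D layer of primary human omental fibroblasts, mesothelial cells, fibronectin and collagen I, grown 48 hr, received SKOV3ip1-GFP cells in serum-free medium plus compounds at 0.36-46 umol/L. After 2 hr RT and 16 hr 37 C, fixed adherent GFP cells were counted; normalized to DMSO and tomatine.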

outcome, inactive:
CC(C)C(=O)Nc1ccc2nc(SCC(=O)N3CCc4ccccc43)sc2c1
CCC(=O)N1CCc2cc(S(=O)(=O)Nc3cc(C)ccc3OC)ccc21
CC1CCN(C(=O)CSc2nc3ccccc3nc2Cc2ccccc2)CC1
COc1cccc(NC(=O)Cn2c(=O)n(CCCCC(=O)NCc3ccccc3Cl)c(=O)c3ccccc32)c1
COc1ccc(Cn2ccnc2SCC(=O)Nc2nnc(C)s2)cc1
Cc1nn2c(C)c(C(=O)NCc3ccc(OC(C)C)cc3)cnc2c1-c1ccc(F)cc1
Cc1ccc2nc(-c3ccc(Cl)s3)c(Nc3ccc4c(c3)OCCO4)n2c1
Cc1cccc(NC(=O)CN2C(=O)C(c3ccc(F)cc3)=NC23CCCCCC3)c1
CCN(CCCNC(=O)c1nn(-c2ccc(C)cc2)c(=O)c2c1c1ccccc1n2C)c1cccc(C)c1
CCOc1ccccc1NC(=O)c1ccc(F)c(S(=O)(=O)N2CCN(c3ccc(F)cc3)CC2)c1
CCN(CC)CCCNC(=O)CCC(=O)NNc1nc2ccccc2c2nc(C)nn12
O=C(COc1ccc(Cl)cc1)Nc1nnc(S(=O)(=O)N2CCCCCC2)s1
CCOc1cccc(CC(=O)N2CCc3c([nH]c4ccc(OC)cc34)C2c2ccc(F)cc2)c1OCC (centres undefined)
Cc1ccc(-c2nn(-c3ccccc3)c3c2cnc2ccccc23)cc1C
COc1ccc(CCNC(=O)c2ccc3c(c2)N(Cc2ccccc2)CCS3)cc1OC
CCOc1ccc(NC(=O)C(=O)NCCc2csc(-c3ccc(C(F)(F)F)cc3)n2)cc1
COc1ccc(OC)c(-c2noc(N3CCN(c4ccc(Cl)cc4)CC3)n2)c1
COc1ccc(NC(=O)CN2CCN(Cc3ccccc3Cl)S2(=O)=O)cc1Cl
CCc1cccc(NC(=O)CCc2c(C)nc3c(-c4ccccc4)c(C)nn3c2C)c1
COc1cc(OC)c(NC(=O)N2CCC(CN3CCOCC3)CC2)cc1Cl
Cc1c(C)c2cc3c(c(C)c2oc1=O)OCN(CCc1ccccc1)C3
Cc1c(Cl)cccc1NC(=O)CSc1ccc(-c2ccccn2)nn1
COc1cccc(CNS(=O)(=O)c2ccc3c(c2)CC(C)N3C(=O)C2CCC2)c1 (centres undefined)
O=C(Cn1c(=O)n(-c2ccc(Cl)cc2)c(=O)c2c3c(sc21)CCCCC3)Nc1cccc(Cl)c1
Cc1ccccc1C(=O)Nc1cc2c(cc1N1CCCCC1)n(C)c(=O)n2C
CCn1c(=O)n(-c2ccc3c(c2)OCO3)c2nc(-c3cccc(OC)c3OC)nc(C(N)=O)c21
COc1ccc(-c2noc(CCC(=O)Nc3cccc(C)c3C)n2)cc1OC

Activity change, negative = inhibition, inactive:
CCOc1ccccc1N1CCN(S(=O)(=O)c2ccc(C3CCCCC3)cc2)CC1 -6.49%
O=C(CSc1ncc(S(=O)(=O)c2ccc(Br)cc2)c(=O)[nH]1)Nc1ccc2c(c1)OCCO2 -16.9%
CCCCC(Sc1nc2cc3c(cc2c(=O)n1CCCC(=O)NCc1ccc2c(c1)OCO2)OCO3)C(=O)OCC (centres undefined) -7.01%
COc1ccccc1CNC(=O)c1ccc2c(c1)N(Cc1c(F)cccc1Cl)C(=O)CS2 -0.919%
Cc1cc(C)cc(NC(=O)c2cc(S(=O)(=O)N3CCc4ccccc43)cn2C)c1 -9.33%
O=C(Nc1ccc2oc(-c3cccc(F)c3)nc2c1)c1ccc2ccccc2c1 1.68%
CC(C)c1ccc(NC(=O)Cn2cc(S(=O)(=O)Cc3ccccc3Cl)c3ccccc32)cc1 -29.1%
COc1cccc(-n2c(SCc3ccc(F)cc3)nc3c([nH]c4ccccc43)c2=O)c1 -5.02%
COC(=O)c1ccc(NC(=O)CN(C)S(=O)(=O)c2ccc(Br)s2)cc1 -1.03%
Cc1ccc(CNC(=O)C(C)n2nc(C)c3sc4ccccc4c3c2=O)cc1 (centres undefined) 7.55%
Cc1cc(C)c(NC(=O)Cn2c(=O)n(Cc3ccc(C(=O)NCc4ccc5c(c4)OCO5)cc3)c(=O)c3ccccc32)c(C)c1 -7.4%
CC(=O)c1c(C)oc2c1cc(NS(=O)(=O)c1ccc(C(C)(C)C)cc1)c1ccccc12 6.21%
COc1ccc(NC(=O)Cn2c(=O)c3ccccc3n3nncc23)c(OC)c1 -4.35%
COc1cccc(CNC(=O)CN2C(=O)COc3ccc(S(=O)(=O)N4CCOCC4)cc32)c1 -5.79%
CCn1c(=O)cc(OCC(=O)N2CCN(c3cccc(C)c3C)CC2)c2ccccc21 -1.13%
Cc1ccc(CNC(=O)c2ccc(N3CCCC3)c(NC(=O)Nc3ccc(F)c(Cl)c3)c2)cc1 1.02%
CC(C)Cc1nn2c(=O)cc(COC(=O)c3ccc(NC(=O)C4CCCCC4)cc3)nc2s1 -0.286%
COc1ccc(NC(=O)c2cc(S(=O)(=O)N3CCCC3)ccc2OC)cc1 -22%
COC(=O)c1ccccc1NC(=O)CN1C(=O)COc2ccc(Cl)cc21 0.939%
COc1cccc(C(=O)Oc2c(Sc3ccc(C)cc3)c(C)nn2C(C)(C)C)c1OC -35.9%
Cc1cccc(C(=O)N2CCc3cc(CNC(=O)CSc4ccccc4)ccc32)c1 -0.68%
CCOc1ccc(NC(=O)c2cc(C)nc3c2c(C)nn3-c2ccc(C)cc2)cc1 0.0625%
CCOc1ccc(C(=O)NCCSc2c(C)[nH]c3ccccc23)cc1OCC 0.295%
CCOc1ccc(C(=O)NCC(c2cccs2)S(=O)(=O)c2ccccc2)cc1 (centres undefined) 4.81%
COc1ccccc1CNC(=O)c1cc2c(s1)-c1ccc(Cl)cc1SC2 5.17%
Cc1ccccc1CNC(=O)CSc1nnc(C)c2c(C)n(-c3ccccc3)nc12 -7.61%
Cn1cc(-c2cnn3c(N)c(Br)c([C@H]4CCCNC4)nc23)cn1 17.9%
CCOC(=O)c1c(NC(=O)c2cc(-c3ccc(OC)c(OC)c3)on2)sc(C)c1C -8.04%
COc1ccccc1N1CCN(C(CNC(=O)C(=O)NCc2cccnc2)c2cccnc2)CC1 (centres undefined) 23.3%
CC(=O)N1CCCc2cc(S(=O)(=O)N3CCC(C(=O)Nc4ccc(C)cc4Cl)CC3)ccc21 -0.764%
CCCCOc1ccc(C2C(C(=O)Nc3ccccc3OC)=C(C)Nc3nnnn32)cc1OC (centres undefined) -7.81%
Cc1ccn2c(Nc3ccc4c(c3)OCCO4)c(-c3ccccc3O)nc2c1 6.17%
Cc1ccc(S(=O)(=O)n2nc(C)c(S(=O)(=O)N3CCCCCC3)c2C)cc1C 39.1%
Cc1ccc(NC(=O)c2oc3c(c2C)-c2[nH]ncc2CC3)c(Cl)c1 -7.31%
Cc1ccc(CNC(=O)c2ccc(Nc3nc4ccccc4n4nnnc34)cc2)cc1 1.38%
Cc1cc(NC(=O)Nc2nnc(N3CCCCCC3)s2)ccc1Br -4.41%
Cc1ccc(C(=O)N2CCn3c4c(c5cc(C)ccc53)CCCC42)cc1 (centres undefined) -0.245%
Cc1cc(C)cc(NS(=O)(=O)c2ccc3[nH]cc(C(=O)NCCc4ccccc4)c(=O)c3c2)c1 -4.35%
Cn1cnc(S(=O)(=O)N2CCCC(C(=O)NCc3ccc(F)cc3)C2)c1 (centres undefined) 10.2%
Cc1ccc(S(=O)(=O)N(CCc2ccccc2)CC(=O)Nc2ccccc2C)cc1 -6.84%
CNC(=O)c1c(-c2ccc(F)cc2)oc2cc(N(CCO)S(C)(=O)=O)c(C3CC3)cc12 -0.637%
CC(C)c1ccc(NS(=O)(=O)c2cc(Br)cc3c2N(C(=O)C2CC2)CC3)cc1 1.54%
COC(=O)c1sc2c(c1C)c(=O)n(-c1ccccc1)c(=O)n2CC(=O)Nc1cccc(C)c1 -5.42%
CCCN1C(=O)C(O)(CC(=O)c2ccc(C(C)C)cc2)c2ccccc21 (centres undefined) -7.71%
CCc1ccccc1NS(=O)(=O)c1ccc2c(c1)CCCN2C(=O)C1CCC1 -2.85%
CC(C)NC(=O)c1ccc2c(c1)N(Cc1cccc(Cl)c1)C(=O)c1ccccc1S2=O (centres undefined) -3.58%
CCN(C(=O)Cn1c(=O)oc2cc(S(=O)(=O)N3CCCCC3)ccc21)c1ccccc1 -7.67%
CN1CCN(Cc2c(O)ccc3cc(-c4ccc(Cl)cc4)c(=O)oc23)CC1 -8.15%
CCN(CC)CCCC(C)Nc1ccnc2cc(Cl)ccc12 (centres undefined) -20.4%
Cc1cc(C)cc(N2CCn3c2nc2c3c(=O)n(C/C=C/c3ccccc3)c(=O)n2C)c1 17.5%
COc1cccc(CC(=O)Nc2ccc(-c3nc4ccccc4s3)cc2Cl)c1 8.16%
CCOc1cc(CNC(=O)C2CCN(c3nc4ccccc4[nH]3)CC2)cc(OCC)c1OCC 1.23%
COc1ccc(N2CCN(C(=O)C3Cc4ccccc4N3C(C)=O)CC2)cc1 (centres undefined) -2.63%
COc1cccc(CNC(=O)c2c(C)oc3ncnc(N4CCOCC4)c23)c1 -8.78%
Cc1ccc2nc(-c3ccc(F)cc3)c(NC(C)(C)CC(C)(C)C)n2c1 2.27%
Cc1ccc(C)c(NC(=O)CCOc2ccccc2)c1 5.01%
COc1ccc(C)cc1NC(=O)C(=O)NCC(c1cccnc1)N1CCN(c2ccccc2F)CC1 (centres undefined) -23.2%
Cc1ccc2cccc(NC(=O)c3cccc4c(Br)cccc34)c2n1 55.5%
O=C(NCc1cccc(Cl)c1)c1cc2c(s1)-c1ccccc1SC2 -1.97%
COc1ccc(N2CCN(C(=O)c3ccc4c(c3)N(Cc3cccc(Cl)c3)C(=O)c3ccccc3S4(=O)=O)CC2)cc1 -6.35%
CCCn1cc(S(=O)(=O)c2ccc(C)c(C)c2)c(=O)c2cc(F)c(N3CCC(C)CC3)cc21 3.24%
Cc1cc(C)c2nc(N3CCCC(C(=O)NCc4ccccc4F)C3)sc2c1 (centres undefined) -7.05%
CCOC(=O)CC(NC(=O)c1cc2c(=O)n3cccc(C)c3nc2s1)c1ccc(OCC)c(OC)c1 (centres undefined) -1.44%
CCOc1ccccc1N(C)C(=O)c1cc2c(s1)-c1ccccc1OC2 7.01%
CC(C)OCCCNC(=O)Cc1ccc(NC(=O)N2CCCCc3ccccc32)cc1 6.88%
CCc1ccccc1NC(=O)Cn1c(=O)n(-c2cccc(C)c2)c(=O)c2c1c1cc(OC)ccc1n2C 40.1%
Cc1ccc(S(=O)(=O)c2cn(CC(=O)Nc3ccc(F)cc3)c3cc4c(cc3c2=O)OCO4)cc1 57.3%
